Data reported in the supplement of paper PMC7125110.
Variants at the background level are over-represented here.

B1: glmS ribozyme (parent)
chain: AUAAAAGCGCCAGAACUACAGAAAUGUAGUUGACGAGGAGGAGGUUUAUCGAAUUUUCGGCGGAUGCCUCCAAA

Assays:
Conditions in all cases: with glucosamine-6-phosphate
glucosamine-6-phosphate [1] = variants of: B1; assay: kcat; higher = faster cleavage; RNA array
Procedure, shortened: (§1)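 Barcoded ribozyme variants were transcribed in situ on sequenced MiSeq chips by E. coli RNA polymerase. At 37 °C, a hybridised Cy3 probe tracked them while glucosamine-6-phosphate (40 μM to 10 mM) in HEPES/KCl/Mg(OAc)2 buffer flowed in and tiles were imaged over ~14 h. Per-tile medians of signals normalised to baseline and to non-cleaving reference variants were fit to one- or two-exponential decays, giving kobs. kcat and KM came from weighted Michaelis–Menten fits across concentrations.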

glucosamine-6-phosphate [2] = variants of: B1; assay: self-cleavage kobs at 40 uM GlcN6P; higher = faster cleavage; RNA array
Procedure, shortened: as §1

glucosamine-6-phosphate [3] = variants of: B1; assay: self-cleavage kobs at 2500 uM GlcN6P; higher = faster cleavage; RNA array
Procedure, shortened: as §1

glucosamine-6-phosphate [4] = variants of: B1; assay: self-cleavage kobs at 10000 uM GlcN6P; higher = faster cleavage; RNA array
Procedure, shortened: as §1

glucosamine-6-phosphate [5] = variants of: B1; assay: self-cleavage kobs at 160 uM GlcN6P; higher = faster cleavage; RNA array
Procedure, shortened: as §1

glucosamine-6-phosphate [6] = variants of: B1; assay: self-cleavage kobs at 640 uM GlcN6P; higher = faster cleavage; RNA array
Procedure, shortened: as §1

Variant | kcat (glucosamine-6-phosphate [1]) [s⁻¹] | self-cleavage kobs at 40 uM GlcN6P (glucosamine-6-phosphate [2]) [s⁻¹] | self-cleavage kobs at 2500 uM GlcN6P (glucosamine-6-phosphate [3]) [s⁻¹] | self-cleavage kobs at 10000 uM GlcN6P (glucosamine-6-phosphate [4]) [s⁻¹] | self-cleavage kobs at 160 uM GlcN6P (glucosamine-6-phosphate [5]) [s⁻¹] | self-cleavage kobs at 640 uM GlcN6P (glucosamine-6-phosphate [6]) [s⁻¹]
A15U U46G G51U | < 1e-05 | < 1e-05 | < 1e-05 | – | – | –
C10G C61G | < 1e-05 | – | – | < 1e-05 | – | –
G38A C50U | < 1e-05 | < 1e-05 | – | < 1e-05 | – | –
G43A A52G | < 1e-05 | – | – | – | < 1e-05 | –
G38U C58A | < 1e-05 | – | – | – | – | –
A33U C61A | < 1e-05 | – | – | < 1e-05 | – | –
A33G G35C | < 1e-05 | < 1e-05 | – | < 1e-05 | – | –
A36C G38U | < 1e-05 | < 1e-05 | – | < 1e-05 | < 1e-05 | –
A6G G7A C50U C58U | < 1e-05 | < 1e-05 | – | – | – | –
A52C U65G | < 1e-05 | < 1e-05 | – | – | < 1e-05 | < 1e-05
A33U G62A | < 1e-05 | – | – | – | < 1e-05 | –
G7U U54A U57A | < 1e-05 | – | – | < 1e-05 | < 1e-05 | –
G32U C61A C70U | < 1e-05 | – | – | – | – | –
C11U G13C | < 1e-05 | – | – | – | < 1e-05 | –
C11A U49G U57G | < 1e-05 | – | – | < 1e-05 | – | –
G13A C61G | < 1e-05 | – | < 1e-05 | – | – | < 1e-05
A53G C61A | < 1e-05 | – | – | – | – | –
C11U C61A | < 1e-05 | – | – | – | – | –
C11U C61G | < 1e-05 | – | – | – | – | –
C34A G37C | < 1e-05 | – | < 1e-05 | < 1e-05 | – | –
G29A C61A | < 1e-05 | – | – | – | – | –
G29A G38C C70U | < 1e-05 | – | – | – | < 1e-05 | –
G32U A48G | < 1e-05 | < 1e-05 | – | – | < 1e-05 | < 1e-05
G41A U57A | < 1e-05 | < 1e-05 | – | – | – | < 1e-05
G51U U65C | < 1e-05 | – | – | – | – | –
G51U U65A | < 1e-05 | – | – | – | < 1e-05 | –
A12U C61A | < 1e-05 | – | – | – | – | –
G51A G60A | < 1e-05 | – | – | < 1e-05 | – | < 1e-05

Variant | kcat (glucosamine-6-phosphate [1]) [s⁻¹] | self-cleavage kobs at 40 uM GlcN6P (glucosamine-6-phosphate [2]) [s⁻¹] | self-cleavage kobs at 2500 uM GlcN6P (glucosamine-6-phosphate [3]) [s⁻¹] | self-cleavage kobs at 10000 uM GlcN6P (glucosamine-6-phosphate [4]) [s⁻¹] | self-cleavage kobs at 160 uM GlcN6P (glucosamine-6-phosphate [5]) [s⁻¹] | self-cleavage kobs at 640 uM GlcN6P (glucosamine-6-phosphate [6]) [s⁻¹]
C10G C68U | < 1e-05 | – | – | – | – | –
G51C G59C | < 1e-05 | – | – | – | – | < 1e-05
C34U U49C | < 1e-05 | – | – | – | – | –
G37U U49C | < 1e-05 | < 1e-05 | – | < 1e-05 | – | –
G37A G60A | < 1e-05 | – | – | – | < 1e-05 | –
C10G | < 1e-05 | < 1e-05 | – | – | – | –
G51A A52G | < 1e-05 | < 1e-05 | – | – | – | –
A15U G60A | < 1e-05 | < 1e-05 | – | – | – | –
A42C G62A | < 1e-05 | – | – | < 1e-05 | < 1e-05 | < 1e-05
C10A G32A | < 1e-05 | < 1e-05 | – | – | – | < 1e-05
U55G C61G | < 1e-05 | – | – | – | – | –
U46C C50A | < 1e-05 | < 1e-05 | – | – | < 1e-05 | < 1e-05
G41A G63C | < 1e-05 | < 1e-05 | < 1e-05 | – | < 1e-05 | < 1e-05
A48G C50U | < 1e-05 | < 1e-05 | – | – | – | < 1e-05
A6C G38A | < 1e-05 | – | – | – | – | –
G7A G32C G43C | < 1e-05 | – | – | – | – | < 1e-05
A6U C10G | < 1e-05 | – | – | – | – | < 1e-05
C58U A64U | < 1e-05 | – | – | – | – | < 1e-05
G38C C70U | < 1e-05 | – | – | – | – | –
G38C C70G | < 1e-05 | – | < 1e-05 | – | – | –
G37C G40U | < 1e-05 | < 1e-05 | – | – | < 1e-05 | < 1e-05
G37C G40A | < 1e-05 | < 1e-05 | – | – | < 1e-05 | –
G51U C70U | < 1e-05 | – | – | – | – | –
A52U U57C | < 1e-05 | < 1e-05 | – | – | < 1e-05 | < 1e-05
G29U G38U | < 1e-05 | – | < 1e-05 | – | – | –
U49G C68A | < 1e-05 | < 1e-05 | – | – | – | –
C10A C58A | < 1e-05 | – | – | – | < 1e-05 | –
